Biological target: T1, Orb2B (Drosophila melanogaster, UniProt Q9VSR3)
T1 construct: gene orb2; aggregates
Test: ThT fluorescence
Assay type: binding
Conditions: amyloid form; 25 µM ThT, 50 mM glycine pH 8.5

T1 sequence (Q9VSR3 whole entry): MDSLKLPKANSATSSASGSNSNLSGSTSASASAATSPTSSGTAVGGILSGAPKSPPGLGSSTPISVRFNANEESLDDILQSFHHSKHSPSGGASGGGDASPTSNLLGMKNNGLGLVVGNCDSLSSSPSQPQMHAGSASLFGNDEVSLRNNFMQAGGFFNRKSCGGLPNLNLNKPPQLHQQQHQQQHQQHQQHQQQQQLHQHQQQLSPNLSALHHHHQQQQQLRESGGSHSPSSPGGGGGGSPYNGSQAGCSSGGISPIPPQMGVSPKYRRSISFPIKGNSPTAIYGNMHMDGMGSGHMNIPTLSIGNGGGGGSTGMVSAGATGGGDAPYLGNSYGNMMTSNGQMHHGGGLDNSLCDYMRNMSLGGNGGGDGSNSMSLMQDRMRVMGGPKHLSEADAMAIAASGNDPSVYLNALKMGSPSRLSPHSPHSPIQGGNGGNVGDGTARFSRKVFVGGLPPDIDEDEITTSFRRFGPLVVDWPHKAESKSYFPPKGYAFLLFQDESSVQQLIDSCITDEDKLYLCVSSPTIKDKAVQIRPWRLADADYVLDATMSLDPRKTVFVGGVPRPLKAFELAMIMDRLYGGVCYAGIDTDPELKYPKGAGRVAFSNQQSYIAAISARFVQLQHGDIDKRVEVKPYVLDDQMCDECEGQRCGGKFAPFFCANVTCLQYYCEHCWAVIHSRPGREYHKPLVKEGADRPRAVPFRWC

## Cc1ccc2c(c1)sc(-c1ccc(N(C)C)cc1)[n+]2C [thioflavin T]
  ThT fluorescence: Both recombinant Orb2A and Orb2B bind to thioflavin T (ThT) and Congo red (CR) dyes
